{"source": "the supplement of paper PMC8728848", "assay_in_all_cases": "glycan array binding signal (z-score within array); higher = stronger binding", "settings_in_all_cases": "glycan notation: IUPAC condensed, linker removed", "key": {"Gal(b1-3)GalNAc": {"biological_target": "Gal(b1-3)GalNAc", "outline": "(§1)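 From the Consortium for Functional Glycomics database, 3228 arrays were curated, keeping only those whose protein sequence was available. Binding is given as a within-array Z-score averaged across arrays sharing a protein sequence and across linkers. Negative Z-scores can be read as non-binding.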"}, "[1]": {"biological_target": "Gal(b1-3)GalNAc(a1-3)[Fuc(a1-2)]Gal(b1-4)Glc", "outline": "as §1"}, "[2]": {"biological_target": "Gal(b1-3)GalNAc(a1-3)[Fuc(a1-2)]Gal(b1-4)GlcNAc", "outline": "as §1"}, "Gal(b1-3)GalNAc(b1-3)Gal": {"biological_target": "Gal(b1-3)GalNAc(b1-3)Gal", "outline": "as §1"}, "[3]": {"biological_target": "Gal(b1-3)GalNAc(b1-3)Gal(a1-4)Gal(b1-4)Glc", "outline": "as §1"}, "[4]": {"biological_target": "Gal(b1-3)GalNAc(b1-4)Gal(b1-4)Glc", "outline": "as §1"}, "[5]": {"biological_target": "Gal(b1-3)GalNAc(b1-4)[Neu5Ac(a2-3)]Gal(b1-4)Glc", "outline": "as §1"}, "Gal(b1-3)GlcNAc": {"biological_target": "Gal(b1-3)GlcNAc", "outline": "as §1"}, "[6]": {"biological_target": "Gal(b1-3)GlcNAc(a1-3)Gal(b1-4)GlcNAc", "outline": "as §1"}, "[7]": {"biological_target": "Gal(b1-3)GlcNAc(a1-6)Gal(b1-4)GlcNAc", "outline": "as §1"}, "Gal(b1-3)GlcNAc(b1-2)Man": {"biological_target": "Gal(b1-3)GlcNAc(b1-2)Man", "outline": "as §1"}, "[8]": {"biological_target": "Gal(b1-3)GlcNAc(b1-2)Man(a1-3)[Gal(b1-3)GlcNAc(b1-2)Man(a1-6)]Man(b1-4)GlcNAc(b1-4)GlcNAc", "outline": "as §1"}, "[9]": {"biological_target": "Gal(b1-3)GlcNAc(b1-2)Man(a1-3)[Gal(b1-3)GlcNAc(b1-2)Man(a1-6)]Man(b1-4)GlcNAc(b1-4)[Fuc(a1-6)]GlcNAc", "outline": "as §1"}, "[10]": {"biological_target": "Gal(b1-3)GlcNAc(b1-2)Man(a1-3)[GlcNAc(b1-4)][Gal(b1-3)GlcNAc(b1-2)Man(a1-6)]Man(b1-4)GlcNAc(b1-4)GlcNAc", "outline": "as §1"}, "[11]": {"biological_target": "Gal(b1-3)GlcNAc(b1-2)[Gal(b1-3)GlcNAc(b1-6)]Man(a1-6)[Gal(b1-3)GlcNAc(b1-2)Man(a1-3)]Man(b1-4)GlcNAc(b1-4)GlcNAc", "outline": "as §1"}, "[12]": {"biological_target": "Gal(b1-3)GlcNAc(b1-3)Gal(b1-3)GlcNAc", "outline": "as §1"}, "[13]": {"biological_target": "Gal(b1-3)GlcNAc(b1-3)Gal(b1-4)Glc", "outline": "as §1"}, "[14]": {"biological_target": "Gal(b1-3)GlcNAc(b1-3)Gal(b1-4)GlcNAc", "outline": "as §1"}, "[15]": {"biological_target": "Gal(b1-3)GlcNAc(b1-3)Gal(b1-4)GlcNAc(b1-2)Man(a1-3)[Gal(b1-3)GlcNAc(b1-3)Gal(b1-4)GlcNAc(b1-2)Man(a1-6)]Man(b1-4)GlcNAc(b1-4)GlcNAc", "outline": "as §1"}, "[16]": {"biological_target": "Gal(b1-3)GlcNAc(b1-3)Gal(b1-4)GlcNAc(b1-2)[Gal(b1-3)GlcNAc(b1-3)Gal(b1-4)GlcNAc(b1-6)]Man(a1-6)[Gal(b1-3)GlcNAc(b1-3)Gal(b1-4)GlcNAc(b1-2)Man(a1-3)]Man(b1-4)GlcNAc(b1-4)[Fuc(a1-6)]GlcNAc", "outline": "as §1"}, "[17]": {"biological_target": "Gal(b1-3)GlcNAc(b1-3)Gal(b1-4)GlcNAc(b1-3)Gal(b1-4)GlcNAc(b1-2)[Gal(b1-3)GlcNAc(b1-3)Gal(b1-4)GlcNAc(b1-3)Gal(b1-4)GlcNAc(b1-6)]Man(a1-6)[Gal(b1-3)GlcNAc(b1-3)Gal(b1-4)GlcNAc(b1-3)Gal(b1-4)GlcNAc(b1-2)Man(a1-3)]Man(b1-4)GlcNAc(b1-4)[Fuc(a1-6)]GlcNAc", "outline": "as §1"}, "[18]": {"biological_target": "Gal(b1-3)GlcNAc(b1-3)Gal(b1-4)GlcNAc(b1-6)[Gal(b1-3)GlcNAc(b1-3)]Gal(b1-4)Glc", "outline": "as §1"}, "[19]": {"biological_target": "Gal(b1-3)GlcNAc(b1-3)Gal(b1-4)[Fuc(a1-3)]GlcNAc", "outline": "as §1"}, "[20]": {"biological_target": "Gal(b1-3)GlcNAc(b1-3)Gal(b1-4)[Fuc(a1-3)]GlcNAc(b1-6)[Gal(b1-3)GlcNAc(b1-3)]Gal(b1-4)Glc", "outline": "as §1"}, "[21]": {"biological_target": "Gal(b1-3)GlcNAc(b1-3)GalNAc", "outline": "as §1"}, "[22]": {"biological_target": "Gal(b1-3)GlcNAc(b1-6)Gal(b1-4)GlcNAc", "outline": "as §1"}, "[23]": {"biological_target": "Gal(b1-3)GlcNAc(b1-6)GalNAc", "outline": "as §1"}, "[24]": {"biological_target": "Gal(b1-3)GlcNAc(b1-6)[Gal(b1-3)]GalNAc", "outline": "as §1"}, "Gal(b1-3)GlcNAc6S": {"biological_target": "Gal(b1-3)GlcNAc6S", "outline": "as §1"}, "[25]": {"biological_target": "Gal(b1-3)[Fuc(a1-4)]GlcNAc", "outline": "as §1"}, "[26]": {"biological_target": "Gal(b1-3)[Fuc(a1-4)]GlcNAc(b1-2)Man", "outline": "as §1"}, "[27]": {"biological_target": "Gal(b1-3)[Fuc(a1-4)]GlcNAc(b1-2)Man(a1-3)[Gal(b1-3)[Fuc(a1-4)]GlcNAc(b1-2)Man(a1-6)]Man(b1-4)GlcNAc(b1-4)[Fuc(a1-6)]GlcNAc", "outline": "as §1"}, "[28]": {"biological_target": "Gal(b1-3)[Fuc(a1-4)]GlcNAc(b1-3)Gal(b1-3)[Fuc(a1-4)]GlcNAc", "outline": "as §1"}, "[29]": {"biological_target": "Gal(b1-3)[Fuc(a1-4)]GlcNAc(b1-3)Gal(b1-4)GlcNAc", "outline": "as §1"}, "[30]": {"biological_target": "Gal(b1-3)[Fuc(a1-4)]GlcNAc(b1-3)Gal(b1-4)[Fuc(a1-3)]GlcNAc", "outline": "as §1"}, "[31]": {"biological_target": "Gal(b1-3)[Fuc(a1-4)]GlcNAc(b1-6)GalNAc", "outline": "as §1"}, "[32]": {"biological_target": "Gal(b1-3)[GlcNAc(b1-6)]GalNAc", "outline": "as §1"}}, "note": "The other results are listed elsewhere or left out."}
{"binder": "Siglec-7-SA-PE-180 (Homo sapiens), Q9Y286 (protein) MLLLLLLPLLWGRERVEGQKSNRKDYSLTMQSSVTVQEGMCVHVRCSFSYPVDSQTDSDPVHGYWFRAGNDISWKAPVATNNPAWAVQEETRDRFHLLGDPQTKNCTLSIRDARMSDAGRYFFRMEKGNIKWNYKYDQLSVNVTALTHRPNILIPGTLESGCFQNLTCSVPWACEQGTPPMISWMGTSVSPLHPSTTRSSVLTLIPQPQHHGTSLTCQVTLPGAGVTTNRTIQLNVSYPPQNLTVTVFQGEGTASTALGNSSSLSVLEGQSLRLVCAVDSNPPARLSWTWRSLTLYPSQPSNPLVLELQVHLGDEGEFTCRAQNSLGSQHVSLNLSLQQEYTGKMRPVSGVLLGAVGGAGATALVFLSFCVIFIVVRSCRKKSARPAADVGDIGMKDANTIRGSASQGNLTESWADDNPRHHGLAAHSSGEEREIQYAPLSFHKGEPQDLSGQEATNNEYSEIKIPK", "values": [{"measurement": "glycan array binding signal (z-score)", "setting": "Gal(b1-3)GalNAc", "result": -0.353}, {"measurement": "glycan array binding signal (z-score)", "setting": "[1]", "result": -0.1}, {"measurement": "glycan array binding signal (z-score)", "setting": "[2]", "result": -0.394}, {"measurement": "glycan array binding signal (z-score)", "setting": "Gal(b1-3)GalNAc(b1-3)Gal", "result": -0.504}, {"measurement": "glycan array binding signal (z-score)", "setting": "[3]", "result": -0.171}, {"measurement": "glycan array binding signal (z-score)", "setting": "[4]", "result": 0.158}, {"measurement": "glycan array binding signal (z-score)", "setting": "[5]", "result": -0.153}, {"measurement": "glycan array binding signal (z-score)", "setting": "Gal(b1-3)GlcNAc", "result": -0.03}, {"measurement": "glycan array binding signal (z-score)", "setting": "[6]", "result": -0.314}, {"measurement": "glycan array binding signal (z-score)", "setting": "[7]", "result": -0.387}, {"measurement": "glycan array binding signal (z-score)", "setting": "Gal(b1-3)GlcNAc(b1-2)Man", "result": 0.044}, {"measurement": "glycan array binding signal (z-score)", "setting": "[8]", "result": -0.318}, {"measurement": "glycan array binding signal (z-score)", "setting": "[9]", "result": -0.352}, {"measurement": "glycan array binding signal (z-score)", "setting": "[10]", "result": -0.03}, {"measurement": "glycan array binding signal (z-score)", "setting": "[11]", "result": -0.181}, {"measurement": "glycan array binding signal (z-score)", "setting": "[12]", "result": -0.395}, {"measurement": "glycan array binding signal (z-score)", "setting": "[13]", "result": -0.479}, {"measurement": "glycan array binding signal (z-score)", "setting": "[14]", "result": 0.024}, {"measurement": "glycan array binding signal (z-score)", "setting": "[15]", "result": -0.12}, {"measurement": "glycan array binding signal (z-score)", "setting": "[16]", "result": 0.215}, {"measurement": "glycan array binding signal (z-score)", "setting": "[17]", "result": 0.606}, {"measurement": "glycan array binding signal (z-score)", "setting": "[18]", "result": -0.201}, {"measurement": "glycan array binding signal (z-score)", "setting": "[19]", "result": -0.189}, {"measurement": "glycan array binding signal (z-score)", "setting": "[20]", "result": -0.201}, {"measurement": "glycan array binding signal (z-score)", "setting": "[21]", "result": -0.304}, {"measurement": "glycan array binding signal (z-score)", "setting": "[22]", "result": -0.207}, {"measurement": "glycan array binding signal (z-score)", "setting": "[23]", "result": -0.411}, {"measurement": "glycan array binding signal (z-score)", "setting": "[24]", "result": 0.341}, {"measurement": "glycan array binding signal (z-score)", "setting": "Gal(b1-3)GlcNAc6S", "result": 0.32}, {"measurement": "glycan array binding signal (z-score)", "setting": "[25]", "result": -0.102}, {"measurement": "glycan array binding signal (z-score)", "setting": "[26]", "result": 0.158}, {"measurement": "glycan array binding signal (z-score)", "setting": "[27]", "result": -0.143}, {"measurement": "glycan array binding signal (z-score)", "setting": "[28]", "result": -0.372}, {"measurement": "glycan array binding signal (z-score)", "setting": "[29]", "result": -0.196}, {"measurement": "glycan array binding signal (z-score)", "setting": "[30]", "result": -0.14}, {"measurement": "glycan array binding signal (z-score)", "setting": "[31]", "result": -0.078}, {"measurement": "glycan array binding signal (z-score)", "setting": "[32]", "result": -0.225}]}
